No constants are given. Whether binding was seen depends on the method and setting. Binding seen in cells or lysates may run through a third protein. Some binding calls cover weakened binding; strength is not graded here. For part of these data: Where a sequence is shown, tags or fusion partners need not be part of it.

By UniProt entry, the sequences of proteins in these tests, tags left out.
UniProt P68104: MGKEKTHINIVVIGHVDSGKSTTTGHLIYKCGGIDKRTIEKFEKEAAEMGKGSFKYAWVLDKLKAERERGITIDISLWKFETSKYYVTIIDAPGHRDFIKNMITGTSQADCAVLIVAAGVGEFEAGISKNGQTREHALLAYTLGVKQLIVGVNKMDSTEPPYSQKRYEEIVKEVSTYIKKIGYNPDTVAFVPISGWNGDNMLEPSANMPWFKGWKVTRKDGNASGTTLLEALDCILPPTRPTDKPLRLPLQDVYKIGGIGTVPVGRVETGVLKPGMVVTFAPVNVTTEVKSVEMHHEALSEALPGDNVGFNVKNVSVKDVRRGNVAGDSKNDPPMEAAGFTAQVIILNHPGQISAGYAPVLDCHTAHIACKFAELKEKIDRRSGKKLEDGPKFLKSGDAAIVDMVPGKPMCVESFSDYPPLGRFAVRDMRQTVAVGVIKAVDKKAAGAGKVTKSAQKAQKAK
UniProt Q05639: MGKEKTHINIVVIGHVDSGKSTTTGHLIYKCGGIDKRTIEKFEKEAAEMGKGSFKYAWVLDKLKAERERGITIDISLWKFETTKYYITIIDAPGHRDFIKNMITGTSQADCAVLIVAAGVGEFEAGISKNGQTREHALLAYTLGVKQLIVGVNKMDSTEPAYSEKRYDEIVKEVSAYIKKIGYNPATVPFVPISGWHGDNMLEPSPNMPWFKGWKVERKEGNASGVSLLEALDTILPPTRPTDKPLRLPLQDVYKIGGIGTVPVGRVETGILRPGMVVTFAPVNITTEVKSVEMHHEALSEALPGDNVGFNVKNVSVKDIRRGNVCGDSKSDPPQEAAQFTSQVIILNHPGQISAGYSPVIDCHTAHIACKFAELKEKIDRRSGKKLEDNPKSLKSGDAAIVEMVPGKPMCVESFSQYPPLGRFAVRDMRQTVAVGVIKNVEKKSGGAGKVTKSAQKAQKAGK
UniProt P19525: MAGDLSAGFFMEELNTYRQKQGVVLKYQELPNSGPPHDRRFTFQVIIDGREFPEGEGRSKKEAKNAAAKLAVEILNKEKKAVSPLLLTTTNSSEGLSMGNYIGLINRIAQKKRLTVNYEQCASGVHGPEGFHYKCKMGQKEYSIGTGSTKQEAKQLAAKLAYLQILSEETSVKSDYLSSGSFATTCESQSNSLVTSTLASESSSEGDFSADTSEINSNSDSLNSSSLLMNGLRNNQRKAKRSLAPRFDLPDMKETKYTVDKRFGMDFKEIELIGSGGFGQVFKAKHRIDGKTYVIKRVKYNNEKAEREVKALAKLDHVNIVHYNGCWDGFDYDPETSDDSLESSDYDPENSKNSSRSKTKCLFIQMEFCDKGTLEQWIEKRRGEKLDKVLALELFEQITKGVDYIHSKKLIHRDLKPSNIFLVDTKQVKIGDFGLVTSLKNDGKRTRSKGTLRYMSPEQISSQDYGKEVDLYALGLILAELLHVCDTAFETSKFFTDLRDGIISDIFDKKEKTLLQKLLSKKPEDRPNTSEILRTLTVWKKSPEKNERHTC
UniProt Q9NYA1: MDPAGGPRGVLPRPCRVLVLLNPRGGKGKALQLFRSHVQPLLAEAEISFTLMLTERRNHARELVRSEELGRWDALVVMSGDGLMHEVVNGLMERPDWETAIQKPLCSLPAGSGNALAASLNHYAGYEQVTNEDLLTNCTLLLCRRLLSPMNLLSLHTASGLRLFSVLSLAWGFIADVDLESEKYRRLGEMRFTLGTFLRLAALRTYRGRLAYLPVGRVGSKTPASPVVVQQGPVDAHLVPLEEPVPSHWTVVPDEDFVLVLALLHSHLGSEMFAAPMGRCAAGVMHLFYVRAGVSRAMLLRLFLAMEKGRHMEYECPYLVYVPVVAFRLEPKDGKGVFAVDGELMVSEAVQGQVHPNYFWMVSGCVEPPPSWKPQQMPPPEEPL

Assay [1] concerns the target eEF1A1-tGFP (UniProt P68104). The experiment in a line: co-IP; whole extracts of wt, eEF1A1-tGFP or eEF1A2-tGFP HeLa cells (1% Triton X-100, 50 mM Tris-HCl pH 7.4, 150 mM NaCl, 1 mM EDTA); IP overnight at 4 °C with anti-tGFP or anti-PKR antibody-coated beads; Western blot with PKR or tGFP antibodies.
For assay [2], the target named is eEF1A2-tGFP (human) (UniProt Q05639). The description is as above.
Assay [3] addresses eEF1A2 (endogenous, HeLa wt cells) (human (endogenous in HeLa)) (UniProt Q05639). The experiment in a line: condition: only cells incubated for 1 h with 450 nM plitidepsin; proximity ligation; Duolink PLA in HeLa wt cells treated with 450 nM plitidepsin for 1 h; fluorescence microscopy.
For assay [4], the target named is eEF1A2-tGFP (human) (UniProt Q05639). The experiment in a line: condition: only cells treated with 450 nM plitidepsin; co-IP; as a2, but eEF1A2-tGFP HeLa cells treated with 450 nM plitidepsin for different times before lysis; IP with anti-tGFP or anti-PKR antibodies; band densitometry.
For assay [5], the target named is eEF1A2 (endogenous, HeLa wt cells) (human (endogenous in HeLa)) (UniProt Q05639). The experiment in a line: proximity ligation; Duolink PLA in HeLa wt cells treated with vehicle (0.1% DMSO) for 1 h; anti-eEF1A2 and anti-PKR antibodies; fluorescence microscopy.
Assay [6] has as its target Interferon-induced, double-stranded RNA-activated protein kinase (PKR) (human (endogenous in HeLa)) (UniProt P19525). Kind of assay: co-IP; whole extracts of wt, eEF1A1-tGFP or eEF1A2-tGFP HeLa cells (1% Triton X-100, 50 mM Tris-HCl pH 7.4, 150 mM NaCl, 1 mM EDTA); IP overnight at 4 °C with anti-tGFP or anti-PKR antibody-coated beads; Western blot with PKR or tGFP antibodies. For orientation: A western blot detects proteins with antibodies after separation by electrophoresis.

Assay [7] shares this target. Kind of assay: condition: only cells treated with 450 nM plitidepsin; co-IP; as a2, but eEF1A2-tGFP HeLa cells treated with 450 nM plitidepsin for different times before lysis; IP with anti-tGFP or anti-PKR antibodies; band densitometry.
Assay [8] addresses eEF1A2-tGFP (human) (UniProt Q05639). Kind of assay: co-IP; extracts of HeLa cells ectopically overexpressing human eEF1A2-tGFP and myc-tagged PRDX1, SPHK1 or SPHK2; the bait of the IP is not given; the SPHK1 and SPHK2 interactions were also tested after plitidepsin treatment (not affected).
Assay [9] shares this target. The experiment in a line: co-IP; as a6 for eEF1A2-tGFP and myc-PRDX1, with cells treated with plitidepsin over time before lysis.

For “Interferon-induced, double-stranded RNA-activated protein kinase (PKR) (from UniProt P19525 1-551) (enzyme)”, the binding entry is given as “no binding” in assay [1]; “binds” in [2]; “no binding” in [3]; “no binding” in [4]; “binds” in assay [5].
Regarding eEF1A1-tGFP (from UniProt P68104 1-462), the binding entry in assay [6] is “no binding”.
Turning to eEF1A2-tGFP (from UniProt Q05639 1-463), the binding result was “binds” in [6] and “no binding” in [7].
On to “myc-tagged human SPHK1 (from UniProt Q9NYA1 1-384) (enzyme)”, for which, in assay [8], the binding entry is on record as “binds”.

B1: myc-tagged human PRDX1 (enzyme, UniProt Q06830 1-199)
chain: MSSGNAKIGHPAPNFKATAVMPDGQFKDISLSDYKGKYVVFFFYPLDFTFVCPTEIIAFSDRAEEFKKLNCQVIGASVDSHFCHLAWVNTPKKQGGLGPMNIPLVSDPKRTIAQDYGVLKADEGISFRGLFIIDDKGILRQITVNDLPVGRSVDETLRLVQAFQFTDKHGEVCPAGWKPGSDTIKPDVQKSKEYFSKQK
Regarding B1, the binding entry in assay [9] is listed as “no binding (condition: cells treated with plitidepsin)”; in assay [8], “binds”.

B2: myc-tagged human SPHK2 (enzyme, UniProt Q9NRA0 1-654)
chain: MNGHLEAEEQQDQRPDQELTGSWGHGPRSTLVRAKAMAPPPPPLAASTPLLHGEFGSYPARGPRFALTLTSQALHIQRLRPKPEARPRGGLVPLAEVSGCCTLRSRSPSDSAAYFCIYTYPRGRRGARRRATRTFRADGAATYEENRAEAQRWATALTCLLRGLPLPGDGEITPDLLPRPPRLLLLVNPFGGRGLAWQWCKNHVLPMISEAGLSFNLIQTERQNHARELVQGLSLSEWDGIVTVSGDGLLHEVLNGLLDRPDWEEAVKMPVGILPCGSGNALAGAVNQHGGFEPALGLDLLLNCSLLLCRGGGHPLDLLSVTLASGSRCFSFLSVAWGFVSDVDIQSERFRALGSARFTLGTVLGLATLHTYRGRLSYLPATVEPASPTPAHSLPRAKSELTLTPDPAPPMAHSPLHRSVSDLPLPLPQPALASPGSPEPLPILSLNGGGPELAGDWGGAGDAPLSPDPLLSSPPGSPKAALHSPVSEGAPVIPPSSGLPLPTPDARVGASTCGPPDHLLPPLGTPLPPDWVTLEGDFVLMLAISPSHLGADLVAAPHARFDDGLVHLCWVRSGISRAALLRLFLAMERGSHFSLGCPQLGYAAARAFRLEPLTPRGVLTVDGEQVEYGPLQAQMHPGIGTLLTGPPGCPGREP
In the case of B2, the binding entry in assay [8] is on record as “binds”.

The values are drawn from paper PMC6265344.
